# Laboratory results as given in PubChem BioAssay (Tox21).
# Inconclusive results, whose numbers are uncertain, are shown with a selection of clear calls. No potency is given beside an inconclusive call; the fits are too rough. The source made the active and inactive calls. The call rests on the fitted dose curve; in most records, active means well fitted curve in the direction sought with a large enough effect in the repeat runs; inconclusive means weak or mixed curves; inactive means no such curve, though single readings can be large; an effect the other way counts as inactive or inconclusive.
# Tests used:
# [1] = qHTS assay for identifying genotoxic compounds that show differential cytotoxicity against isogenic chicken DT40 cell lines with known DNA damage response pathways - wild type cell line (AID 743012); conditions: DT40 wild type chicken cells viability, CellTiter-Glo, 40 h; activity change, negative = cytotoxicity: at 68.4 µM (top of the series) unless noted; further: nearly all actives have a fitted effect of over 60% in size
# Procedure, shortened: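 Viability by ATP luminescence (CellTiter-Glo, 30 min RT) after 40 h compound treatment at 37 C/5% CO2, using 300 parental DNA repair-proficient DT40 cells per well.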
# [2] = qHTS assay for identifying genotoxic compounds that show differential cytotoxicity against isogenic chicken DT40 cell lines with known DNA damage response pathways - Rad54/Ku70 mutant cell line (AID 743015); conditions: DT40 Rad54/Ku70 mutant viability, CellTiter-Glo, 40 h; activity change, negative = cytotoxicity: at 66.8 µM (top of the series); further: nearly all actives have a fitted effect of over 60% in size
# [3] = qHTS assay for identifying genotoxic compounds that show differential cytotoxicity against isogenic chicken DT40 cell lines with known DNA damage response pathways - Rev3 mutant cell line (AID 743014); conditions: chicken DT40 Rev3-/- viability, CellTiter-Glo, 40 h; series mostly up to 68.4 µM; further: nearly all actives have a fitted effect of over 55% in size
# [4] = qHTS assay to identify small molecule antagonists of the androgen receptor (AR) signaling pathway - cell viability counter screen (AID 743033; further: nearly all actives have a fitted effect of over 45% in size); conditions: AR-bla HEK293 viability, CellTiter-Glo luminescence, 16 h; activity change, negative = cytotoxicity: at 58.5 µM (top of the series) unless noted
# Potency means the concentration at half of the fitted maximal effect; tags describe the fitted curve by direction and shape.
structure (smiles),measurement,setting,value
CCN(CC)CCCC(C)Nc1ccnc2cc(Cl)ccc12 (configuration not stated),Potency,[1],"inconclusive [cytotoxic, single point]"
same,Potency,[2],"inconclusive [cytotoxic, single point]"
CCCCCCC(=O)OCC,Potency,[2],inactive
O=C1c2cccc3c2[C@H](CCC3)CN1[C@@H]1CN2CCC1CC2,Potency,[3],"inconclusive [cytotoxic, partial curve]"
same,Potency,[4],inconclusive [cytotoxic]
COc1ccc(Nc2ccccc2)c(C)c1,Potency,[3],"inconclusive [cytotoxic, partial curve, poor fit]"
same,Potency,[2],"inconclusive [cytotoxic, single point]"
